Sequences and labels used below:
T1: extracellular domains of FGFR1c fused to Fc fragments, biotinylated (UniProt P11362 22-376, biotin (biotinylated; site not stated))
T1 sequence (looked up): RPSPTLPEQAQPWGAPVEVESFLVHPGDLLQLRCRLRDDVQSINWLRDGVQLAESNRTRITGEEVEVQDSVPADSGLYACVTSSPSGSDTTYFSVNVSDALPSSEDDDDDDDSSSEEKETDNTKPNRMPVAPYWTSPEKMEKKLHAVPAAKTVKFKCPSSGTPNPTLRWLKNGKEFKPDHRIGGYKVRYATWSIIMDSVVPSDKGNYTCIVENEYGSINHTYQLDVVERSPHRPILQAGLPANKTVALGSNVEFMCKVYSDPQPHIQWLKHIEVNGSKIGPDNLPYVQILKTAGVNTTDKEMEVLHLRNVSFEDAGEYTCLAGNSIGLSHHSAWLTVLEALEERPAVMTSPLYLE

B1: FGF2 WT-(vcMMAE)2 (ligand)
chain: not shown
modifications: vcMMAE (maleimidocaproyl-Val-Cit-PABC-monomethylauristatin E) on the two exposed cysteines Cys78 and Cys96
B2: KCK-FGF2[C78S/C96S]-(vcMMAE)1 (ligand)
chain: not shown
modifications: vcMMAE (maleimidocaproyl-Val-Cit-PABC-monomethylauristatin E) on the cysteine of the N-terminal KCKSGG sequence
B3: KCK-FGF2-(vcMMAE)3 (ligand)
chain: not shown
modifications: vcMMAE (maleimidocaproyl-Val-Cit-PABC-monomethylauristatin E) on Cys78, Cys96 and the cysteine of the N-terminal KCKSGG sequence
B4: wild-type fibroblast growth factor 2 (FGF2) (ligand)
chain: not shown

The values below come from PMC6044718 (ACS Omega, 2017).

Values joined by “and” are separate entries in the source; they are usually repeats but may differ in a detail not shown here. Identical values can stand only once.

As usually defined, the Kd is a measure of binding affinity in units of concentration. Read a high Kd as lower affinity. The term koff denotes the rate constant with which the complex falls apart. In general, kon refers to the rate constant with which the complex forms. Low readings indicate slower complex formation, high ones faster complex formation.

The test addresses T1, extracellular domains of FGFR1c fused …. The test can be described thus: BLI.
With B1, the Kd is 0.367 nM and 0.443 nM and 0.422 nM and 0.54 nM; the koff was 0.000254 s⁻¹ and 0.000386 s⁻¹ and 0.000514 s⁻¹; the on-rate (kon) is 691000 M⁻¹ s⁻¹ and 916000 M⁻¹ s⁻¹ and 952000 M⁻¹ s⁻¹.
B2: the Kd is 0.977 nM and 0.827 nM and 0.683 nM and 0.821 nM; the off-rate (koff) was 0.000533 s⁻¹ and 0.00058 s⁻¹ and 0.000711 s⁻¹; the kon is 545000 M⁻¹ s⁻¹ and 849000 M⁻¹ s⁻¹ and 866000 M⁻¹ s⁻¹.
As for B3, the Kd was 2.71 nM and 2.08 nM and 2.1 nM and 1.43 nM; the koff was 0.000661 s⁻¹ and 0.000648 s⁻¹ and 0.000375 s⁻¹; the association rate constant (kon) is 244000 M⁻¹ s⁻¹ and 309000 M⁻¹ s⁻¹ and 262000 M⁻¹ s⁻¹.
As to B4, the koff was 0.000218 s⁻¹ and 0.000351 s⁻¹ and 0.000286 s⁻¹; the kon was 910000 M⁻¹ s⁻¹ and 1.9e+06 M⁻¹ s⁻¹ and 1.3e+06 M⁻¹ s⁻¹.
